Out of some 420,000 compounds screened, about 50,000 (12%) were called active. This list was built around the results that the source calls inconclusive (neither active nor inactive); the mix of calls is not that of the screen. Calls come from the whole dose curve; as a rule, active = well fitted inhibition curve with a large enough effect; inconclusive = small, poorly fitted or top-dose-only effect; inactive = flat fitted curve, though single readings scatter. No potency is given beside an inconclusive call; the fits are too rough.
Assay: qHTS for Inhibitors of human tyrosyl-DNA phosphodiesterase 1 (TDP1): qHTS in cells in presence of CPT; note: nearly all actives have a fitted effect of over 55% in size
Conditions: chicken DT40 Tdp1-/-;hTDP1 cells + 20 nM CPT, ATP luminescence, 48 h; activity change, negative = growth inhibition: at 46.2 µM (top of the series)
In short: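 Cell growth measured by CellTiter-Glo luminescence after a minimum 48 h, 37 C compound exposure with 20 nM CPT in Tdp1-knockout DT40 cells stably expressing hTDP1, seeded 400/well; qHTS titration format.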
With O=C(c1ccco1)N1CCN(Cc2ccccc2Br)CC1 the Potency was inconclusive [inhibitor, partial curve].
In the case of O=C(O)C1=C[C@H](c2ccc(Br)cc2)C[C@H](OCc2ccc(CO)cc2)O1, the Potency is reported as “inactive”.
With Cc1ccc(C2=C(c3ccc([N+](=O)[O-])cc3)C(=O)OC2)cc1C the Potency was inconclusive [inhibitor, single point].
With COc1cc(NS(=O)(=O)c2ccc(NC(=O)c3ccccc3C(=O)O)cc2)nc(OC)n1 the Potency was “inactive”.
In the case of CCCCNC(=O)CSc1nc2nc(C)c(Cc3ccccc3C)c(C)n2n1, the Potency is reported as inconclusive [inhibitor, single point].
In the case of COc1cc(OC)c(NC(=O)NC(C)c2c(-n3cccc3)sc(C)c2C)cc1Cl (stereo not given), the Potency is reported as “inactive”.
With CCC1(C)Cc2c(C#N)c(SC)nc(N3CCOCC3)c2CO1 (stereo not given) the Potency was inconclusive [inhibitor, single point].
In the case of Cn1c(/C=C/c2ccccc2)nc2ccccc21, the Potency is reported as inconclusive [inhibitor, partial curve].
In the case of COc1cc(Cl)ccc1OC1(C)CCN(Cc2c(F)cccc2F)C1 (stereo not given), the Potency is reported as inconclusive [inhibitor, single point].
In the case of O=C(O)CCCN=CC1=C(O)CNC1=O, the Potency is reported as inconclusive [inhibitor, single point].
For CC(=O)Nc1cccc(C(=O)NCc2ccc3c(c2)CCN3C(=O)c2ccccc2)c1, the Potency was inconclusive [inhibitor, single point].
In the case of CCOC(=O)/C(=N\Nc1ccc(OC)cc1)c1csc(Nc2ccccc2)n1, the Potency is reported as inconclusive [inhibitor, single point].
With CC(C)(C)CNC(=O)[C@]1(C)CCC[C@@]2(C)C3CC[C@@]4(C)C[C@]3(CCC21)CC4=O (stereo not given in full) the Potency was inconclusive [inhibitor, single point].
For Cc1cc(C)n2c(NC3CCCCC3)c(-c3ccccn3)nc2n1, the Potency was inconclusive [inhibitor, single point].
With Cc1cc(N2CCC(C)CC2)n2nc(C)c(-c3ccccc3)c2n1 the Potency was inconclusive [inhibitor, single point].
With CCOc1ccc(C2C(C#N)=C(N)N(c3sc4c(c3C#N)CCCC4)C3=C2C(=O)CCC3)cc1 (stereo not given) the Potency was inconclusive [inhibitor, single point].
For Nc1cc(Cc2ccccc2)ccc1O, the Potency was active: 23.1 µM.
In the case of c1ccc2[nH]c(CSc3ncnc4c3oc3ccccc34)nc2c1, the Potency is reported as inconclusive [inhibitor, single point].
With Cc1c(-c2nc(N)nc(Nc3ccccc3)n2)oc2ccccc12 the Potency was inconclusive [inhibitor, single point].
For CCOc1ccccc1N(CC(=O)N1CCN(Cc2ccccc2)CC1)S(=O)(=O)c1ccccc1, the Potency was active: 23.1 µM.
With O=C1CCCCN1CCCC(=O)N1CCCC(Nc2ccc(F)c(F)c2)C1 (stereo not given) the Potency was “inactive”.
In the case of CCOC(=O)c1cc(-c2ccc(C)cc2)n(CCC(=O)N2CCN(c3ccccn3)CC2)c1C, the Potency is reported as active: 23.1 µM.
With CCOC(=O)/C(=N\Nc1ccccc1Cl)N1CCN(Cc2ccccc2)CC1 the Potency was inconclusive [inhibitor, single point].
With COc1cccc(C(=O)Nc2cc(-c3ccccc3)no2)c1 the Potency was inconclusive [inhibitor, single point].
For CC(C)CC(=O)Nc1ccc(C(=O)OCc2cc(=O)n3nc(C(C)C)sc3n2)cc1, the Potency was “inactive”.
For O=C(NN1CCOCC1)c1cccc2ccccc12, the Potency was inconclusive [inhibitor, single point].
For Cc1noc(C)c1COc1ccc(C(=O)OCC(=O)Nc2ccc(C(=O)N(C)C)cc2)cc1, the Potency was “inactive”.
In the case of CCOC(=O)[C@H]1[C@H]2COc3ccc(Cl)cc3[C@@H]2N2C(=O)c3cc(Cl)ccc3NC(=O)[C@@]12C, the Potency is reported as active: 13 µM.
In the case of Cc1cc(C(=O)NNC(=O)Cc2ccc(Cl)cc2)c(C)o1, the Potency is reported as “inactive”.
In the case of O=C1C=C(C#Cc2ccccc2)C[C@@H](c2ccc(F)cc2)C1, the Potency is reported as active: 4.61 µM.
For CCc1nnc(N2CCN(c3ncnc4c3oc3ccccc34)CC2)s1, the Potency was active: 18.4 µM.
For COc1ccc(/C=C2\SC(=O)N(CCC(=O)NCCCn3ccnc3)C2=O)cc1, the Potency was inconclusive [inhibitor, partial curve].
In the case of COc1ccc(C(=O)N2CC(=O)Nc3ccc(F)cc3C2c2ccc(F)cc2)c(OC)c1 (stereo not given), the Potency is reported as inconclusive [inhibitor, single point].
For Cc1cccc(-n2cnc(C(=O)NNC(=S)Nc3ccc(Cl)cc3)c2)n1, the Potency was active: 7.31 µM.
In the case of CCOc1ccccc1NC(=O)Cn1cnc2onc(-c3ccc(F)cc3)c2c1=O, the Potency is reported as inconclusive [inhibitor, single point].
With N#Cc1ccccc1-c1ccc2ncnc(NC3CC3)c2c1 the Potency was inconclusive [inhibitor, single point].
For COC(=O)C1=CN(c2cccc(C)c2)C=C(C(=O)OC)C1c1cc(OC)c(O)c([N+](=O)[O-])c1, the Potency was inconclusive [inhibitor, single point].
For OC(c1ccccc1)(c1ccccc1)C1CCN(CCCOc2ccccc2)CC1, the Potency was inconclusive [inhibitor, single point].
With CCOc1ccc(CCNC(=O)CS(=O)Cc2nc(-c3ccc(C)cc3)oc2C)cc1 (stereo not given) the Potency was inconclusive [inhibitor, single point].
For CC(C)n1nnnc1C1c2ccccc2C(=O)N1C1CC1 (stereo not given), the Potency was “inactive”.
In the case of O=c1cc(NCc2ccco2)c2ccccc2o1, the Potency is reported as “inactive”.
With C[C@@H]1COC(=O)[C@@H](CC(=O)OC(C)(C)C)C/C=C\C[C@@H](CC(=O)N(CCO)Cc2ccccc2)C(=O)N1 the Potency was “inactive”.
In the case of COc1ccc(C2Nc3ccccc3C(=O)N2Cc2ccco2)cc1OC (stereo not given), the Potency is reported as active: 8.91 µM.
With COc1ccccc1-c1cnc(C(O)c2cccc(F)c2)[nH]1 (stereo not given) the Potency was “inactive”.
With CC(C)CC(NS(=O)(=O)c1ccc2c(c1)oc(=O)n2C)C(=O)NCCc1ccc(Cl)cc1 (stereo not given) the activity change, negative = growth inhibition was inconclusive: 12.7% [inhibitor].

Reference: PubChem BioAssay AID686979 (National Center for Advancing Translational Sciences (NCATS), 2013)
% is set by controls: 0 for no effect and ±100 for the full control effect; potency is the fitted concentration of half-maximal effect; tags give direction and shape of the fitted curve.
